Experimental data published in patent USRE50631E1, “ROR1 antibody immunoconjugates” (VelosBio Inc., priority 2017, dated 2025).

Legend:
Assay type in all cases: cell-based, human
[1] = system: Jeko-1 cells; experiment: Internalization by Jeko-1 cells (pulse-chase flow cytometry); settings: Jeko-1 cells
Procedure: Multiple methods were used to determine antibody internalization. In one approach, internalization was measured using a pulse-chase methodology that quantitates non-internalized, cell surface antibody at 15, 30, 60, 120, and 240 minutes using flow cytometry. Jeko-1 cells were grown and harvested prior to confluency, washed with cold PBS and resuspended at 1×10^7 in cold FACS buffer (PBS+2% FBS-Fisher/Gibco Cat. No. 16140071). 1×10^6 cells were added to microcentrifuge tubes or wells. Internalization of Ab1 and ADC constructs by the cells was determined at saturating antibody concentrations, using 30 μg/ml for Jeko-1 cells and 100 μg/mL for MDA-MB-231 cells. 10× stock solutions of ADC constructs or Ab1 were prepared (300 μg/ml for use with Jeko-1 cells or 1 mg/ml for use with MDA-MB-231 cells) and 10 μL of sample or buffer control was added to the following (adding additional tubes for each time point): • a) Unstained • b) Secondary antibody only • c) Negative Control hIgG mAb at 30 μg/ml—time 0 • d) Positive Control ADC construct or Ab1 at 30 μg/ml—time 0 • e) ADC construct or Ab1—time point 1 • f) ADC construct or Ab1—time point 2, etc.
Cells and antibody were incubated on ice for 20 minutes, spun at 300×g for 4 minutes, washed twice with 200 μL of FACS buffer, and resuspended in 100 μL of FACS buffer. The samples were incubated at 37° C. for 15, 30, 60, 120, and 240 minutes, as indicated above. Internalization was terminated by transferring the samples to ice. A time course for antibody internalization was generated for each test article as described above, after which antibody remaining on the cell surface was detected using a PE-labeled secondary antibody. Cells were spun at 250×g, washed twice with FACS buffer and resuspended in 100 μL of FACS buffer. […] The median fluorescent intensity (MFI) was quantitated and the degree of receptor internalization was determined using the amount of the antibody or ADC present at each time point when compared to the amount present at time=0. […]

[2] = system: DU4475; experiment: Cytotoxicity in vitro (CellTiter-Glo viability), DU4475; settings: DU4475 (TNBC), 72 hours
[3] = system: H460; experiment: Cytotoxicity in vitro (CellTiter-Glo viability), H460; settings: H460 (NSCLC), 72 hours

B1: ADC-A: Ab1 conjugated via MAL (mc)-VC-PAB linker to MMAE (conjugate)
heavy: QVQLQESGPGLVKPSQTLSLTCTVSGYAFTAYNIHWVRQAPGQGLEWMGSFDPYDGGSSYNQKFKDRLTISKDTSKNQVVLTMTNMDPVDTATYYCARGWYYFDYWGHGTLVTVSS[skipping human IgG1 constant region]
light: DIVMTQTPLSLPVTPGEPASISCRASKSISKYLAWYQQKPGQAPRLLIYSGSTLQSGIPPRFSGSGYGTDFTLTINNIESEDAAYYFCQQHDESPYTFGEGTKVEIKRTVAAPSVFIFPPSDEQLKSGTASVVCLLNNFYPREAKVQWKVDNALQSGNSQESVTEQDSKDSTYSLSSTLTLSKADYEKHKVYACEVTHQGLSSPVTKSFNRGEC
internalization compared with Ab1 / ADC-A [1]: did not negatively impact binding or internalization
EC50 [2]: 248 nM
EC50 [3]: 61.5 nM
